Patent publication US20140350081A1, “INSECT G-COUPLED RECEPTORS USEFUL AS TARGETS FOR INSECTICIDES AND COMPOUNDS AND REAGENTS IDENTIFIED USING THE SAME” (priority 2011, published 2014)
Where a name gives a salt, the structure may show the parent alone. Read-outs that look alike come from different tables or passages of the source.

What was measured:
AaDOP2 [1] = molecular target: T1, AaDOP2 (Aedes aegypti, UniProt H6D5H2); experiment: HTRF cAMP accumulation concentration response assay (Cisbio Dynamic 2); format: cell-based
T1 sequence (H6D5H2 entry or part of it): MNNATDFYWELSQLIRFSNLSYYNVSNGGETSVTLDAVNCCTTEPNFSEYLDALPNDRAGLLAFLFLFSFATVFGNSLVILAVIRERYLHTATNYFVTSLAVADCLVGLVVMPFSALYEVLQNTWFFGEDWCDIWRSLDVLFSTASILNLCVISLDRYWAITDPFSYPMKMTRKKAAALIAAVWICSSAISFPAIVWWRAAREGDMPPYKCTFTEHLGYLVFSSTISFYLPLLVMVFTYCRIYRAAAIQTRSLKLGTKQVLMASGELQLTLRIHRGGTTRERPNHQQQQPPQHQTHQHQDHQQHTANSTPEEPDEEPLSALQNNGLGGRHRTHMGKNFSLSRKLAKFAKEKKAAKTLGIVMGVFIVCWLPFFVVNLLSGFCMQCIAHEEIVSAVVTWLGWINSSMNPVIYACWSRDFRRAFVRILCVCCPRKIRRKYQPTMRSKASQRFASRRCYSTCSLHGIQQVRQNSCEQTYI

Isdop2 [2] = molecular target: T2, Isdop2 (Ixodes scapularis, UniProt A0ACM8DGL0); experiment: cell-based; format: cell-based; conditions: for inhibition at 10 µM: read-out: % Inhibition (of response to dopamine), Isdop2 screen
T2 sequence (A0ACM8DGL0 entry or part of it): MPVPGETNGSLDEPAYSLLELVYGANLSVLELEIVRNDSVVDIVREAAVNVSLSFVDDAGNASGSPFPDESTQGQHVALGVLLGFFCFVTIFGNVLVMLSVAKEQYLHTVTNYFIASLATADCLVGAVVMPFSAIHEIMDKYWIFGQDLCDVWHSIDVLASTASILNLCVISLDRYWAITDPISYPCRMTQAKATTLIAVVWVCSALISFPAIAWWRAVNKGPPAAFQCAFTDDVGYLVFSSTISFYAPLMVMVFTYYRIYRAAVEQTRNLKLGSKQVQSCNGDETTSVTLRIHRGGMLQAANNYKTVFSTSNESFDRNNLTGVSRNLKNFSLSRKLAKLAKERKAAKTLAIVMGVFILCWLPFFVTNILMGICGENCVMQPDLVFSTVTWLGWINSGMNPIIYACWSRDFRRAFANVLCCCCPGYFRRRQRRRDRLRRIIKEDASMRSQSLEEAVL

[3] = molecular target: T3, human D1 dopamine receptor (hD1) (Homo sapiens, UniProt P21728); experiment: cAMP accumulation secondary assay, hD1-expressing cells; format: cell-based, H. sapiens
T3 construct: expressed in transfected cells
T3 sequence (P21728 whole entry): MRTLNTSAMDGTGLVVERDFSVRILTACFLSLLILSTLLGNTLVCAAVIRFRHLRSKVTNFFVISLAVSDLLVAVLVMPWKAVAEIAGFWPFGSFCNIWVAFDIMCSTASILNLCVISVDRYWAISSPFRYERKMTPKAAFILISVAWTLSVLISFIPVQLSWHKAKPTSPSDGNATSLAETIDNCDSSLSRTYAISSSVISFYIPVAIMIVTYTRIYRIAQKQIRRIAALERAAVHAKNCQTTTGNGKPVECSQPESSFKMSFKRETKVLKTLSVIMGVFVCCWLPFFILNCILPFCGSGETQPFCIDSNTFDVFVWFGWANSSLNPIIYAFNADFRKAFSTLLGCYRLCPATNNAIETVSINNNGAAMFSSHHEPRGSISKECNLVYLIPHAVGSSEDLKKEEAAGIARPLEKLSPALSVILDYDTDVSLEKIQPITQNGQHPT

AaDOP2 [4] = molecular target: T1, AaDOP2; experiment: cell-based
Isdop2 [5] = molecular target: T2, Isdop2; experiment: cAMP accumulation confirmation assay, cells stably expressing Isdop2; format: cell-based
Isdop1 = Isdop1 (Ixodes scapularis, UniProt A0ACM8FJJ0); experiment: cAMP accumulation confirmation assay, cells stably expressing Isdop1; format: cell-based
[6] = IC50 ± S.E.M. (nM), HTRF cAMP assay

In the case of `CN(C)CCCN1c2ccccc2CCc2ccc(Cl)cc21` [Clomipramine], the IC50 (AaDOP2 [1]; [6]) is reported as 56 ± 18 nM.

In the case of `CCN(CC)C(=O)NC1C=C2c3cccc4[nH]cc(c34)C[C@H]2N(C)C1.O=C(O)/C=C\C(=O)O` (stereo partly drawn) [R(+)-Lisuride hydrogen maleate], the “% Inhibition (of response to dopamine), Isdop2 screen” value (Isdop2 [2]) is reported as 84%.

With `CN(C)CCOC(c1ccccc1)c1ccccc1` [Diphenhydramine] the IC50 (AaDOP2 [1]; [6]) was 7500 nM.

Work on `Clc1ccc(COC(Cn2ccnc2)c2ccc(Cl)cc2Cl)c(Cl)c1` (stereo not drawn) [Miconazole nitrate, 1-(2,4-Dichloro-β-[(2,4-dichlorobenzyl)oxy]phenethyl)imidazole] yielded an IC50 (AaDOP2 [1]; Avg IC50 (μM), in vitro Concentration Response Curve assay, n = 2, relative to control antagonist Amitriptyline) of 7350 nM.

Molecule `Clc1ccc2c(c1)CCc1cccnc1C2=C1CCNCC1` [Desloratidine, 8-Chloro-6,11-dihydro-11-(4-piperidinylidene)-5H-benzo[5,6]cyclohepta[1,2,b]pyridine] has an IC50 (AaDOP2 [1]) of 1170 nM.

With `O=C(CCCN1CCC(O)(c2ccc(Cl)cc2)CC1)c1ccc(F)cc1` [Haloperidol] the IC50 (AaDOP2 [1]; [6]) was 4300 nM.

Work on `CN1CCC[C@@H]1CCO[C@](C)(c1ccccc1)c1ccc(Cl)cc1` [Clemastine fumarate] yielded an inhibition at 10 µM (Isdop2 [2]) of 90%.

`Cc1ccccc1C(OCCN(C)C)c1ccccc1` (stereo not drawn) [Orphenadrine hydrochloride] gave an inhibition at 10 µM (Isdop2 [2]) of 81%.

For `CNCCC(Oc1ccc(C(F)(F)F)cc1)c1ccccc1` (stereo not drawn) [Fluoxetine], the “IC50 ± S.E.M. (nM), HTRF cAMP assay” value (AaDOP2 [1]) was “No Inhibition^a” and the “IC50 ± S.E.M. (nM), HTRF cAMP assay” value (AaDOP2 [1]; listed as fluoxetine) was “no inhibition”.

Work on `Cc1cc2c(s1)Nc1ccccc1N=C2N1CCN(C)CC1` [Olanzapine] yielded an IC50 (AaDOP2 [1]) of 11 ± 2.2 nM.

In the case of `CN(C)CCC=C1c2ccccc2COc2ccccc21` (mixture of isomers) [Doxepin, ((Z)-3-(dibenzo[b,e]oxepin-11(6H)-ylidene)-N,N-dimethylpropan-1-amine)], the IC50 [3] is reported as 960 ± 86 nM, the IC50 (AaDOP2 [4]) is reported as 31 ± 4.9 nM and the IC50 (AaDOP2 [1]; [6]) is reported as 20 ± 6.2 nM.

With `OCCN1CCN(CCCN2c3ccccc3Sc3ccc(C(F)(F)F)cc32)CC1` [Fluphenazine, 2-[4-[3-[2-(trifluoromethyl)-10H-phenothiazin-10-yl]propyl]piperazin-1-yl]ethanol] the IC50 (AaDOP2 [1]) was 15 nM.

`CN1CCN2c3ccccc3Cc3ccccc3C2C1` (racemic) [Mianserin, ((±)-2-methyl-1,2,3,4,10,14b-hexahydrodibenzo[c,f]pyrazino [1,2-a]azepine)] was tested, and the IC50 (AaDOP2 [4]) was 120 ± 40 nM and the IC50 (AaDOP2 [1]; [6]) was 130 ± 24 nM.

Molecule `O=C1CCc2ccc(OCCCCN3CCN(c4cccc(Cl)c4Cl)CC3)cc2N1` [Aripiprazole] has an IC50 (AaDOP2 [1]; [6]) of 6500 nM.

In the case of `CN1CCC(=C2c3ccccc3C=Cc3ccccc32)CC1` [Cyproheptadine], the IC50 (AaDOP2 [1]) is reported as 6.5 ± 1.9 nM.

Molecule `CN1C2CCC1CC(OC(c1ccccc1)c1ccccc1)C2` (stereo not drawn) [Benztropine, (3-endo)-3-(diphenylmethoxy)-8-methyl-8-azabicyclo[3.2.1]octane] has an IC50 (AaDOP2 [1]; [6]) of 340 ± 41 nM.

Work on `CN1CCN(C2=Nc3cc(Cl)ccc3Nc3ccccc32)CC1` [Clozapine, (8-chloro-11-(4-methylpiperazin-1-yl)-5I-dibenzo[b,e][1,4]-diazepine)] yielded an IC50 (Isdop2 [5]) of 9300 nM and an IC50 (Isdop1) of 4700 nM.

`O=c1n(CCCN2CCN(c3cccc(Cl)c3)CC2)nc2ccccn12` [Trazodone] was tested, and the “IC50 ± S.E.M. (nM), HTRF cAMP assay” value (AaDOP2 [1]) was “No Inhibition^a”.

In the case of `Cc1nc2n(c(=O)c1CCN1CCC(c3noc4cc(F)ccc34)CC1)CCCC2` [Risperidone, 4-[2-[4-(6-fluorobenzo[d]isoxazol-3-yl)-1-piperidyl]ethyl]-3-methyl-2,6-diazabicyclo[4.4.0]deca-1,3-dien-5-one], the IC50 (AaDOP2 [1]) is reported as 150 ± 41 nM.
